This note sets out measurements from PMC10668032.

The list shows a part of the results. At the low end of the ranking the order means little.

In the assay the target is SIX1-Q177R homeodomain (UniProt Q15475). The experiment in a line: universal protein binding microarray. The conditions noted are these: Universal all-10-mer PBM (8x60K, AMADID 030236), 300 nM GST-tagged protein, Alexa Fluor 488 anti-GST; buffer, salt, pH and temperature not stated; high values mean tight binding; most listed sequences are background and not binding sites; double strand, one strand shown.
Turning to ACTCCTCC, the binding signal came to 0.213 E-score.

Regarding CAAATTAA, the binding signal is -0.0971 E-score.

On to TAAAGAGA, for which the binding signal is -0.127 E-score.

On to GGACTAAA, for which the binding signal was -0.13 E-score.

In the case of CATACGGC, the binding signal amounted to 0.0144 E-score.

Regarding GTAATTCA, the binding signal was 0.112 E-score.

CGACGCAC: the binding signal amounted to 0.105 E-score.

In the case of GTGACGCA, the binding signal is -0.114 E-score.

With ACCGGACT, the binding signal is 0.0232 E-score.

As to AGGAAATA, the binding signal is -0.143 E-score.

For AGGAATGA, the binding signal was -0.116 E-score.

As to CCACGCTC, the binding signal is -0.06 E-score.

On to ACTTGTTA, for which the binding signal was -0.129 E-score.

On to AAGACAAT, for which the binding signal was -0.291 E-score.

On to TATGTACA, for which the binding signal worked out at 0.13 E-score.

ATTCCGGC: the binding signal was -0.166 E-score.

In the case of ATCCTACC, the binding signal stood at 0.102 E-score.

Consider GTAGACAC, for which the binding signal came to 0.409 E-score.

As for GCTCGAAA, the binding signal is -0.364 E-score.

As to GACAGTAC, the binding signal came to 0.0331 E-score.

In the case of AGCCCACT, the binding signal is -0.0367 E-score.

As for GCGGAACC, the binding signal was found to be 0.083 E-score.

Regarding AGCGCTCG, the binding signal is -0.253 E-score.

As to AAGACCCC, the binding signal amounted to 0.172 E-score.

As for GCTATGCC, the binding signal is -0.328 E-score.

AACTGATG: the binding signal is -0.147 E-score.

Consider GCTCGAAC, for which the binding signal is -0.0277 E-score.

With ACTACGCA, the binding signal stood at 0.0386 E-score.

For the sequence CGTCCTAA, the binding signal is -0.139 E-score.

Turning to CCCTGAGA, the binding signal was -0.0852 E-score.

For GGTAGCAC, the binding signal was -0.00599 E-score.

For AACGCGTC, the binding signal was -0.0221 E-score.

Consider AGCCCCTA, for which the binding signal is -0.0779 E-score.

On to ACAAGAAG, for which the binding signal came out at 0.0731 E-score.

Take AGTACACA: the binding signal is 0.253 E-score.

Regarding CCCGCAGG, the binding signal was determined as 0.0307 E-score.

As to ATCCCCAT, the binding signal came to 0.0626 E-score.

As to AGTTGCAG, the binding signal is 0.0643 E-score.

Take CGACCCGA: the binding signal stood at 0.101 E-score.

GTCTCCGA: the binding signal is -0.199 E-score.

For GTAAGAAC, the binding signal is -0.024 E-score.

As to CCCCCGGC, the binding signal was determined as 0.21 E-score.

In the case of CCGCATCG, the binding signal was 0.0947 E-score.

For CTAGTGAA, the binding signal is -0.0296 E-score.

On to CCCCGCAC, for which the binding signal turned out to be 0.267 E-score.

In the case of ACTAGGCT, the binding signal is -0.0202 E-score.

With CCGCATAA, the binding signal was 0.0196 E-score.

For AGATTTAA, the binding signal is -0.172 E-score.

Regarding AGCGAGGC, the binding signal is -0.252 E-score.

CGCTGATC: the binding signal was -0.109 E-score.

For AGGTCCAT, the binding signal was -0.296 E-score.

Regarding CATTGAGC, the binding signal is -0.129 E-score.

With AATCGAGC, the binding signal is -0.0449 E-score.

For the sequence AGATCTGG, the binding signal is -0.113 E-score.

For ACCGGCCG, the binding signal came out at 0.13 E-score.

For the sequence AGGGAACG, the binding signal is -0.213 E-score.

For the sequence ATCGACAG, the binding signal is -0.305 E-score.

With GCCGCAGA, the binding signal is -0.266 E-score.

Consider ACTGCGTG, for which the binding signal was 0.29 E-score.

Take AAGGGAGA: the binding signal came to 0.0086 E-score.

As to CGTCTGAC, the binding signal is -0.0331 E-score.

Turning to CCATCGGA, the binding signal is 0.0432 E-score.

Regarding AGTTTAAG, the binding signal is -0.0709 E-score.

On to GGCGACTA, for which the binding signal worked out at 0.086 E-score.

As to AATCCGGT, the binding signal stood at 0.0398 E-score.

With CATTTGCA, the binding signal is -0.124 E-score.

Regarding CAAGAGCA, the binding signal worked out at 0.0649 E-score.

Regarding GCTCCCAC, the binding signal was -0.114 E-score.

Regarding AAGAAATT, the binding signal is -0.283 E-score.

On to AAAGAGCC, for which the binding signal was -0.124 E-score.

For GCGTAGAC, the binding signal is -0.158 E-score.

For the sequence AAACTGTT, the binding signal was -0.245 E-score.

With AAACGGGG, the binding signal was found to be 0.0429 E-score.

Regarding AAACGCAT, the binding signal was -0.0952 E-score.

For ACCTTTCC, the binding signal is -0.00107 E-score.

As for GATGCTGA, the binding signal is -0.198 E-score.

With CCACATCC, the binding signal is -0.0477 E-score.

In the case of CTCCTAAA, the binding signal worked out at 0.0219 E-score.

CCGATTCA: the binding signal was -0.118 E-score.

For GAATCGCC, the binding signal was -0.216 E-score.

Take ACCGGTCA: the binding signal came to 0.105 E-score.

For CTGATTCC, the binding signal was -0.118 E-score.

For the sequence ACTTTGAC, the binding signal is -0.0213 E-score.

On to AACGTTAC, for which the binding signal is -0.156 E-score.

In the case of CAGGAATA, the binding signal is -0.0771 E-score.

With CGGGGGTA, the binding signal was found to be 0.315 E-score.

For the sequence CCACTATA, the binding signal came out at 0.129 E-score.

As for CACTGGAA, the binding signal was 0.152 E-score.

As to ACTACTGG, the binding signal was 0.0745 E-score.

With TGAGAGCA, the binding signal is -0.279 E-score.

Consider ACGAGACA, for which the binding signal stood at 0.0301 E-score.

ATATTATA: the binding signal was -0.12 E-score.

Consider ATATAGCG, for which the binding signal was -0.173 E-score.

With GCTGGCGA, the binding signal was -0.064 E-score.

For the sequence ACGTCAGA, the binding signal was determined as 0.0769 E-score.

In the case of GTCGACTA, the binding signal turned out to be 0.0268 E-score.

Consider CCTAATCC, for which the binding signal was -0.0723 E-score.

With GACAAGTC, the binding signal is -0.332 E-score.

With GAGGAGCC, the binding signal was -0.207 E-score.

As for ACGCCGCC, the binding signal is 0.153 E-score.

Consider GAAACGAA, for which the binding signal was -0.0693 E-score.

Take CAGGTAGC: the binding signal stood at 0.0255 E-score.

Turning to AGGAGTTA, the binding signal amounted to 0.00882 E-score.

With AGCATCGC, the binding signal is -0.296 E-score.

For AGCCTCAT, the binding signal is -0.0794 E-score.

As to CAAACGTA, the binding signal is -0.0347 E-score.

On to ACTCAAAG, for which the binding signal is -0.0176 E-score.

With GCCTATCC, the binding signal is -0.24 E-score.

On to GAAGTTAA, for which the binding signal is 0.0343 E-score.
